Counter-ions that a name gives are not always drawn. ± gives the standard deviation of the averaged measurements. Over roughly 1,900 compounds, “normalised cell viability (NPI; 0 = phenylarsine oxide control, 1 = DMSO control)” has its median near 1; the lowest 2% begin near 0.039. The list shows a part of the results.
System: NCI-H1944
Experiment: normalised cell viability (NPI; 0 = phenylarsine oxide control, 1 = DMSO control) (fraction of DMSO control); NCI-H1944 is a non-small cell lung cancer line; higher = more viable cells (less compound toxicity)
Conditions: 6 days
[1] = glucocorticoid arm: hydrocortisone 2.75 uM co-treatment, compound 1 µM
[2] = glucocorticoid arm: hydrocortisone 2.75 uM co-treatment, compound 5 µM
[3] = glucocorticoid arm: hydrocortisone 2.75 uM pre-treated 2 days and continued, compound 1 µM
[4] = glucocorticoid arm: hydrocortisone 2.75 uM pre-treated 2 days and continued, compound 5 µM
[5] = glucocorticoid arm: vehicle, compound 1 µM
[6] = glucocorticoid arm: vehicle, compound 5 µM
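Further: CTB read-out in 384-well plates, mean of triplicate wells, normalised per plate against 1 µM phenylarsine oxide and 0.1% DMSO, compounds added 24 h after seeding.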

Row | SMILES | normalised cell viability [1] | normalised cell viability [2] | normalised cell viability [3] | normalised cell viability [4] | normalised cell viability [5] | normalised cell viability [6]
1 | CNC[C@H](O)c1ccc(O)c(O)c1 (racemic) [(±)-Epinephrine hydrochloride] | 1.01 ± 0.013 | 0.996 ± 0.026 | 1.02 ± 0.015 | 0.9983 ± 0.0015 | 1.02 | 1.01 ± 0.01
2 | CNC[C@H](O)c1ccc(O)c(O)c1 [(-)-Epinephrine (+)-bitartrate] | 0.9933 ± 0.0091 | 0.967 ± 0.015 | 0.9977 ± 0.004 | 0.952 ± 0.015 | 0.9767 ± 0.0025 | 0.9777 ± 0.0025
3 | C=CC(=O)Nc1cc2c(Nc3ccc(F)c(Cl)c3)ncnc2cc1OCCCN1CCOCC1 [CI-1033 (Canertinib)] | 0.961 ± 0.021 | 0.847 ± 0.019 | 0.955 ± 0.022 | 0.905 ± 0.042 | 0.923 ± 0.013 | 0.743 ± 0.032
4 | O=C(NCc1ccccc1)c1csc(Nc2ccncn2)n1 [Thiazovivin] | 0.9927 ± 0.0067 | 1.07 ± 0.01 | 0.992 ± 0.014 | 1.06 ± 0.02 | 0.9837 ± 0.0029 | 0.91 ± 0.027
5 | CNCc1ccc(-c2cc(-c3nc(-c4ccc(S(=O)(=O)C(C)C)cc4)cnc3N)on2)cc1 | 0.79 ± 0.021 | 0.363 ± 0.044 | 0.986 ± 0.027 | 0.864 ± 0.093 | 0.143 ± 0.042 | 0.052 ± 0.013
6 | CN1CCN(CCCN2c3ccccc3Sc3ccc(C(F)(F)F)cc32)CC1 [Trifluoperazine dihydrochloride] | 0.9693 ± 0.004 | 0.926 ± 0.012 | 1.02 ± 0.02 | 1.01 ± 0.011 | 1.003 ± 0.0058 | 0.828 ± 0.14
7 | O=C(CCc1ccc(O)cc1)c1c(O)cc(O)cc1O [Phloretin] | 0.989 ± 0.01 | 0.998 ± 0.013 | 1 ± 0.016 | 1.01 ± 0.014 | 0.989 ± 0.001 | 0.9767 ± 0.0076
8 | OC(CNCC(O)C1CCc2cc(F)ccc2O1)C1CCc2cc(F)ccc2O1 (stereo unspecified) [Nebivolol] | 0.977 ± 0.0099 | 0.937 ± 0.022 | 0.9677 ± 0.0042 | 0.958 ± 0.028 | 0.978 ± 0.0082 | 0.9757 ± 0.0046
9 | COc1cc2nccc(Oc3ccc(NC(=O)Nc4cc(C)on4)c(Cl)c3)c2cc1OC [Tivozanib (AV-951)] | 1.06 ± 0.01 | 1.1 ± 0.01 | 1.05 ± 0.021 | 1.07 ± 0.01 | 1.033 ± 0.0058 | 1.043 ± 0.0058
10 | CC(C)(C#N)c1cc(Cn2cncn2)cc(C(C)(C)C#N)c1 [Anastrozole; Arimidex] | 1.02 ± 0.011 | 1.04 | 1.02 ± 0.01 | 1.05 ± 0.01 | 1.005 ± 0.0081 | 1.01
11 | CCCCCCCCCCCCCCC[C@H](O)[C@H](N)CO (racemic) [DL-erythro-Dihydrosphingosine] | 1 ± 0.017 | 0.991 ± 0.017 | 1.01 ± 0.019 | 1.03 ± 0.029 | 0.986 ± 0.0069 | 0.66 ± 0.57
12 | CN(C)CCOC(C)(c1ccccc1)c1ccccn1 (stereo unspecified) [Doxylamine succinate] | 0.993 ± 0.013 | 0.986 ± 0.0027 | 0.9813 ± 0.0091 | 0.962 ± 0.016 | 0.9807 ± 0.0025 | 0.98 ± 0.0017
13 | CNC(=O)c1cccc(-c2ccc3c(N4CCOC[C@@H]4C)nc(N4CCOC[C@@H]4C)nc3n2)c1 | 0.451 ± 0.04 | 0.325 ± 0.0085 | 0.6123 ± 0.0021 | 0.521 ± 0.016 | 0.3017 ± 0.0021 | 0.189 ± 0.0066
14 | CCc1cc(Nc2nccc(-c3c(-c4ccc(OC)c(C(=O)Nc5c(F)cccc5F)c4)nc4ccccn34)n2)c(OC)cc1N1CCC(N2CCN(S(C)(=O)=O)CC2)CC1 | 0.95 ± 0.012 | 0.94 ± 0.042 | 0.9597 ± 0.0021 | 0.97 ± 0.021 | 1.003 ± 0.0064 | 0.956 ± 0.049
15 | Nc1ccn([C@H]2CC[C@@H](CO)O2)c(=O)n1 [2',3'-dideoxycytidine] | 1.01 ± 0.014 | 0.962 ± 0.017 | 1.002 ± 0.0068 | 0.994 ± 0.017 | 1.013 ± 0.0058 | 0.9997 ± 0.0093
16 | CN1CCC(=C2c3ccccc3CCc3cccnc32)CC1 [Azatadine dimaleate] | 1.01 ± 0.014 | 1.033 ± 0.0058 | 1.01 ± 0.016 | 1.04 ± 0.03 | 1.01 ± 0.01 | 1.007 ± 0.0058
17 | Nc1nc2ccc(OC(F)(F)F)cc2s1 [Riluzole] | 0.971 ± 0.018 | 0.981 ± 0.01 | 0.854 ± 0.22 | 1 ± 0.013 | 0.9727 ± 0.0015 | 0.976 ± 0.007
18 | COc1ccc2c(c1)c(CC(=O)O)c(C)n2C(=O)c1ccc(Cl)cc1 [Indomethacin] | 0.9967 ± 0.0029 | 1.01 ± 0.045 | 1.007 ± 0.0058 | 1.05 ± 0.075 | 0.988 ± 0.0036 | 0.9957 ± 0.0038
19 | CNC(=O)c1cc(Oc2ccc(NC(=O)Nc3cc(C(C)(C)C)nn3-c3ccc4ncccc4c3)c(F)c2)ccn1 [DCC-2036 (Rebastinib)] | 0.9777 ± 0.009 | 1.027 ± 0.0058 | 0.996 ± 0.013 | 0.961 ± 0.053 | 0.986 ± 0.0092 | 1.02 ± 0.01
20 | O=C(O)c1cc(=O)cc(C(=O)O)[nH]1 [Chelidamic acid] | 1.002 ± 0.0076 | 1 ± 0.019 | 0.997 ± 0.012 | 1.01 ± 0.019 | 0.996 ± 0.012 | 0.9957 ± 0.0067
21 | CN1CCc2c(cc(O)c(O)c2Cl)C(c2cccc(Cl)c2)C1 (stereo unspecified) | 1.006 ± 0.0063 | 1.03 ± 0.03 | 1.01 ± 0.039 | 1.017 ± 0.0058 | 1 | 1.013 ± 0.0058
22 | C[C@]1(O)C[C@@H](c2nc(-c3ccc4ccc(-c5ccccc5)nc4c3)c3c(N)nccn32)C1 [Linsitinib (OSI-906)] | 0.676 ± 0.025 | 0.579 ± 0.053 | 0.762 ± 0.013 | 0.714 ± 0.028 | 1.01 ± 0.011 | 1.007 ± 0.0058
23 | O=C(C1CCCCC1)N1CC(=O)N2CCc3ccccc3C2C1 (stereo unspecified) [Praziquantel] | 1.002 ± 0.0072 | 0.978 ± 0.016 | 1.01 ± 0.02 | 1 ± 0.016 | 0.987 ± 0.0053 | 1 ± 0.014
24 | C(=C\c1ccccc1)/CN1CCN(C(c2ccccc2)c2ccccc2)CC1 [Cinnarizine] | 1.01 ± 0.011 | 1.02 | 1.01 ± 0.015 | 1.015 ± 0.0071 | 0.998 ± 0.0035 | 1.017 ± 0.0058
25 | O=C(Nc1ccccc1-c1cn2c(CN3CCNCC3)csc2n1)c1cnc2ccccc2n1 | 0.983 ± 0.016 | 1.06 ± 0.029 | 0.964 ± 0.016 | 1.01 ± 0.025 | 0.997 ± 0.014 | 0.977 ± 0.034
26 | COc1ccc2c(c1OC)C(=O)O[C@@H]2[C@H]1c2c(cc3c(c2OC)OCO3)CCN1C [Noscapine hydrchloride] | 1.01 ± 0.01 | 1.01 ± 0.031 | 1.01 ± 0.016 | 1 ± 0.019 | 1.017 ± 0.0058 | 1.03 ± 0.011
